Experimental data from US20220290101A1.

Target: L1 (DV1-GV4) soluble heterodimeric γδ TCR antigen, leucine zipper (LZ) format (human)
Assay: DELFIA affinity ranking with 100 nM biotinylated L1

Sequence of L1 (DV1-GV4) soluble heterodimeric γδ TCR antigen, leucine zipper (LZ) format (human) (main, as listed by the source): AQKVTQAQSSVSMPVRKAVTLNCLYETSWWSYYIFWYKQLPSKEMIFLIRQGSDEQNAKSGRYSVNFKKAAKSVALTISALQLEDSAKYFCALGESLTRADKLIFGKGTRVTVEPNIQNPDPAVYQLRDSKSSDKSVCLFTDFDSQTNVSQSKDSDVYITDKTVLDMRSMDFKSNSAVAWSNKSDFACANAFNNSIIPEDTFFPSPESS

- 100 nM L1 (DELFIA signal) (fluorescence units): 22500
B1: 1245_P01_G06 (scFv) (scFv)
scFv: QVQLVESGGGLVKPGGSLRLSCAASGFTFSDYYMSWIRQAPGKGLEWVSYISSSGSTIYYADSVKGRFTISRDNAKNSLYLQMNSLRAEDTAVYYCARHSWNDAFDVWGQGTLVTVSSGGGGSGGGGSGGGAS[about 100 residues omitted]
